B1: RON_HUMAN_1239 (peptide)
chain: DILDREYYSVQQHRH
B2: RL7_HUMAN_139 (peptide)
chain: MLRIVEPYIAWGYPN
B3: RHG21_HUMAN_881 (peptide)
chain: KTERSKSYDEGLDDY
B4: RMD2_HUMAN_152 (peptide)
chain: EAESEGGYITANTDT
B5: AT1A1_HUMAN_10 (peptide)
chain: KGVGRDKYEPAAVSE
B6: AT1A1_HUMAN_542 (peptide)
chain: KDAFQNAYLELGGLG
B7: RGS16_HUMAN_168 (peptide)
chain: TLMEKDSYPRFLKSP
B8: RD23B_HUMAN_202 (peptide)
chain: TEIMSMGYEREQVIA
B9: ROR1_HUMAN_646_YA (peptide)
chain: EIASADAYRVQSKSL
B10: RBP2_HUMAN_2666 (peptide)
chain: CYKNRPDYVSEEEED
B11: AT1B1_HUMAN_101_YA (peptide)
chain: DPKSAEAYVLNIVRF
B12: RET_HUMAN_900 (peptide)
chain: FGLSRDVYEEDSYVK
B13: RPB1_HUMAN_1874 (peptide)
chain: YSPTSPKYSPTSPTY
B14: RIPK1_HUMAN_384 (peptide)
chain: KLQDEANYHLYGSRM
B15: REPS1_HUMAN_288_YA (peptide)
chain: ITDEQRQYAVNQFKT
B16: ROS1_HUMAN_2274 (peptide)
chain: KNREGLNYMVLATEC
B17: ROA3_HUMAN_360 (peptide)
chain: GRSSGSPYGGGYGSG
B18: ROA2_HUMAN_331_YA (peptide)
chain: SRNMGGPYGGGNAGP

The list shows a part of the results. No stated cut-off is given here; in the data, active = 3.2 or more and inactive = the rest. The signal is at background level for most entries.
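Further: displayed peptides selected on beads carrying the immobilized SH2 domain, with library peptides lacking any tyrosine serving as negative controls.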

In one assay the target is SHP2 C-SH2 domain E139D. The assay is described as follows: enrichment score (SH2-bound / input frequency) (ratio); bacterial display of known human phosphotyrosine sites (pTyr-Var adds point mutants) read by sequencing; higher = stronger binding; tyrosines were phosphorylated by kinases first. The conditions noted are these: peptide library: Human pTyr.
For B1, the enrichment score was inactive: 0.783.

With B2, the enrichment score was inactive: 1.56.

Consider B3, for which the enrichment score is inactive: 1.17.

Turning to B4, the enrichment score was inactive: 0.981.

Regarding B5, the enrichment score is inactive: 0.785.

For B6, the enrichment score is inactive: 0.607.

Regarding B7, the enrichment score is inactive: 0.568.

For the molecule B8, the enrichment score is inactive: 0.513.

For B9, the enrichment score is inactive: 0.644.

As to B10, the enrichment score was inactive: 1.43.

As for B11, the enrichment score is inactive: 1.32.

For B12, the enrichment score is inactive: 0.544.

For B13, the enrichment score is inactive: 0.544.

On to B14, for which the enrichment score was inactive: 0.979.

B15: the enrichment score was inactive: 0.697.

With B16, the enrichment score is inactive: 1.47.

Turning to B17, the enrichment score is inactive: 0.494.

B18: the enrichment score is inactive: 0.606.

The target of another assay is SHP2 C-SH2 domain wild-type. The assay is described as above. The conditions noted are these: peptide library: Human pTyr.
With B1, the enrichment score was inactive: 0.715.

As for B2, the enrichment score was inactive: 1.45.

Turning to B3, the enrichment score is inactive: 0.798.

Turning to B4, the enrichment score is inactive: 0.689.

As for B5, the enrichment score is inactive: 0.922.

With B6, the enrichment score was inactive: 0.556.

Take B7: the enrichment score is inactive: 0.749.

In the case of B8, the enrichment score was inactive: 0.511.

Take B9: the enrichment score was inactive: 0.513.

With B10, the enrichment score is inactive: 1.58.

On to B11, for which the enrichment score is inactive: 1.14.

As to B12, the enrichment score was inactive: 0.528.

With B13, the enrichment score was inactive: 0.802.

With B14, the enrichment score is inactive: 0.709.

B15: the enrichment score was inactive: 0.791.

Turning to B16, the enrichment score was inactive: 1.04.

As to B17, the enrichment score is inactive: 0.496.

As for B18, the enrichment score was inactive: 0.369.

In a further assay the target is SHP2 N-SH2 domain L43F. The assay is described as above. Conditions: peptide library: Human pTyr.
As to B1, the enrichment score was inactive: 0.694.

Regarding B2, the enrichment score was inactive: 1.34.

With B3, the enrichment score is inactive: 0.886.

As for B4, the enrichment score was inactive: 1.07.

For the molecule B5, the enrichment score is inactive: 0.869.

For the molecule B6, the enrichment score is inactive: 0.651.

Turning to B7, the enrichment score is inactive: 0.726.

Regarding B8, the enrichment score was inactive: 0.809.

Regarding B9, the enrichment score was inactive: 0.621.

Regarding B10, the enrichment score was inactive: 1.52.

B11: the enrichment score was inactive: 1.26.

For the molecule B12, the enrichment score is inactive: 0.737.

On to B13, for which the enrichment score was inactive: 0.465.

Consider B14, for which the enrichment score was inactive: 0.884.

As for B15, the enrichment score was inactive: 0.531.

Regarding B16, the enrichment score was inactive: 1.32.

For B17, the enrichment score was inactive: 0.525.

Regarding B18, the enrichment score was inactive: 0.531.

The next assay has as its target SHP2 N-SH2 domain T42A. Described as above. The conditions noted are these: peptide library: Human pTyr.
For the molecule B1, the enrichment score was inactive: 0.787.

With B2, the enrichment score was inactive: 1.48.

B3: the enrichment score is inactive: 0.935.

As to B4, the enrichment score was inactive: 0.791.

On to B5, for which the enrichment score was inactive: 0.806.

For B6, the enrichment score is inactive: 0.701.

Regarding B7, the enrichment score was inactive: 0.796.

Consider B8, for which the enrichment score was inactive: 0.555.

For the molecule B9, the enrichment score is inactive: 0.656.

Consider B10, for which the enrichment score is inactive: 1.21.

In the case of B11, the enrichment score was inactive: 1.4.

Consider B12, for which the enrichment score was inactive: 0.476.

Regarding B13, the enrichment score was inactive: 0.969.

For B14, the enrichment score is inactive: 0.663.

B15: the enrichment score is inactive: 0.533.

As to B16, the enrichment score was inactive: 1.15.

B17: the enrichment score is inactive: 0.473.

As for B18, the enrichment score is inactive: 0.381.

The next assay concerns the target SHP2 N-SH2 domain T52S. The assay is described as above. The conditions noted are these: peptide library: Human pTyr.
Consider B1, for which the enrichment score was inactive: 0.632.

On to B2, for which the enrichment score is inactive: 1.62.

For the molecule B3, the enrichment score is inactive: 1.29.

Consider B4, for which the enrichment score is inactive: 1.77.

Turning to B5, the enrichment score was inactive: 0.853.

For the molecule B6, the enrichment score is inactive: 0.638.

On to B7, for which the enrichment score was inactive: 0.698.

For the molecule B8, the enrichment score was inactive: 0.516.

For B9, the enrichment score was inactive: 0.56.

In the case of B10, the enrichment score was inactive: 1.4.

For B11, the enrichment score was inactive: 1.39.

In the case of B12, the enrichment score was inactive: 0.735.

On to B13, for which the enrichment score is inactive: 0.59.

In the case of B14, the enrichment score was inactive: 0.746.

Turning to B15, the enrichment score was inactive: 0.694.

Regarding B16, the enrichment score was inactive: 1.2.

Consider B17, for which the enrichment score was inactive: 0.562.

Consider B18, for which the enrichment score is inactive: 0.533.

For another assay, the target named is SHP2 N-SH2 domain wild-type. Described as above. Conditions: peptide library: Human pTyr.
On to B1, for which the enrichment score was inactive: 1.23.

With B2, the enrichment score is inactive: 2.29.

In the case of B3, the enrichment score is inactive: 1.28.

With B4, the enrichment score is inactive: 1.2.

As for B5, the enrichment score is inactive: 0.973.

As to B6, the enrichment score was inactive: 0.728.

As to B7, the enrichment score is inactive: 0.9.

As to B8, the enrichment score was inactive: 0.547.

Take B9: the enrichment score is inactive: 0.68.

Take B10: the enrichment score is inactive: 1.42.

B11: the enrichment score was inactive: 1.45.

Consider B12, for which the enrichment score was inactive: 0.578.

On to B13, for which the enrichment score was inactive: 1.25.

Regarding B14, the enrichment score is inactive: 0.875.

As for B15, the enrichment score was inactive: 0.703.

Consider B16, for which the enrichment score is inactive: 1.32.

For the molecule B17, the enrichment score is inactive: 0.564.

In the case of B18, the enrichment score was inactive: 0.386.

The values above are taken from the supplement of paper PMC10369915.
